This is one part of the list.
Target: no compound (DMSO)
Assay: log2 fold change of degron read counts, EGFP-low vs EGFP+ sorted cells; higher = lower degron-EGFP level without compound (poor expression or instability)
Details: compound: DMSO control; 18 h
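Further: jurkat cells carrying a lentiviral library of mutant zinc finger degrons fused to EGFP plus mCherry, mCherry+ cells FACS sorted, degron abundance counted by next-generation sequencing.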

Sequence | log2 fold change of degron read counts
FLCEICGHTFTQKGNLLRHIKL | -2.24
FWCEICGRCFTQKGNLLRHIKL | -0.141
FHCPVCGARFTQKGNLLRHIKL | -0.166
FCCNQCGHDFTQKGNLLRHIKL | -0.686
FTCPQCGAHFTQKGNLLRHIKL | 0.344
FICNQCGHHFTQKGNLLRHIKL | -0.806
FACEQCGAMFTQKGNLLRHIKL | -1.97
FYCNQCGHWFTQKGNLLRHIKL | 1.21
FECEQCGADFTQKGNLLRHIKL | -3.18
FNCPICGAKFTQKGNLLRHIKL | -0.296
FRCNQCGRCFTQKGNLLRHIKL | -0.514
FLCDICGAIFTQKGNLLRHIKL | -0.0128
FICNVCGAEFTQKGNLLRHIKL | -1.25
FDCNICGAMFTQKGNLLRHIKL | 0.211
FLCEQCGAWFTQKGNLLRHIKL | -0.224
FFCNQCGAWFTQKGNLLRHIKL | 1.23
FDCPQCGAFFTQKGNLLRHIKL | 0.215
FMCDVCGANFTQKGNLLRHIKL | -0.586
FTCNVCGAWFTQKGNLLRHIKL | 0.0965
FICEICGANFTQKGNLLRHIKL | -1.89
FRCNQCGATFTQKGNLLRHIKL | -0.914
FFCPVCGADFTQKGNLLRHIKL | -0.0469
LWCEICGFHCTQKGNLLRHIKL | 1.77
LNCEICGFYCTQKGNLLRHIKL | 1.11
FGCPICGRMFTQKGNLLRHIKL | -0.0123

Sequence | log2 fold change of degron read counts
FDCEICGHMFTQKGNLLRHIKL | 0.309
FKCPICGRDFTQKGNLLRHIKL | -0.583
LECPICGFFCTQKGNLLRHIKL | 1.07
FYCDICGAQFTQKGNLLRHIKL | -1.35
FQCDVCGANFTQKGNLLRHIKL | -1.66
FECNICGAFFTQKGNLLRHIKL | -2.02
FICEICGRKFTQKGNLLRHIKL | -1.61
FHCNQCGHHFTQKGNLLRHIKL | 0.927
FMCNQCGAWFTQKGNLLRHIKL | 0.434
FTCEICGHMFTQKGNLLRHIKL | -1.48
FKCEICGRNFTQKGNLLRHIKL | -2.38
FICPQCGATFTQKGNLLRHIKL | -0.838
FWCNVCGAWFTQKGNLLRHIKL | 1.69
FMCNQCGRLFTQKGNLLRHIKL | 0.337
FHCEICGRPFTQKGNLLRHIKL | -1.96
FWCDICGAQFTQKGNLLRHIKL | -0.104
FGCNQCGRTFTQKGNLLRHIKL | 0.368
FMCEICGRCFTQKGNLLRHIKL | -0.433
FICPVCGAFFTQKGNLLRHIKL | 0.556
FHCEQCGAFFTQKGNLLRHIKL | -1.12
FDCEVCGANFTQKGNLLRHIKL | -0.935
FECPICGAKFTQKGNLLRHIKL | -1.11
FTCNQCGHLFTQKGNLLRHIKL | -0.0508
FSCEVCGAGFTQKGNLLRHIKL | -1.02
FECPQCGASFTQKGNLLRHIKL | -1.49

Reference: the supplement of paper PMC12645437, “Orthogonal IMiD-Degron Pairs Induce Selective Protein Degradation in Cells” (ACS Chemical Biology, 2025)
